Assay results reported in PubChem BioAssay AID488969 (Vanderbilt High Throughput Screening Facility, 2010).
In all, about 110,000 compounds were measured (“z-score”: median about -0.1, highest 2% from about 2 on). Some of the results follow. Activity calls are given as the source filed them.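 Rule for the calls: active = z-score in the third read window above 3 or below -3; inactive = the rest.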

Target: Metabotropic glutamate receptor 8 (Rattus norvegicus) (UniProt P70579)
Assay: mGluR8 Gi/Go-coupled signaling modulation – cell-based, rat, thallium flux, HTS, primary screen (AID 488969)
Conditions: HEK293 rat mGluR8, GIRK (G protein-gated inwardly rectifying potassium channel) thallium flux, FluoZin2; at 10 µM; stronger effect = higher value; submaximal glutamate (EC20) added with thallium

Sequence of UniProt P70579 (P70579 whole entry, looked up): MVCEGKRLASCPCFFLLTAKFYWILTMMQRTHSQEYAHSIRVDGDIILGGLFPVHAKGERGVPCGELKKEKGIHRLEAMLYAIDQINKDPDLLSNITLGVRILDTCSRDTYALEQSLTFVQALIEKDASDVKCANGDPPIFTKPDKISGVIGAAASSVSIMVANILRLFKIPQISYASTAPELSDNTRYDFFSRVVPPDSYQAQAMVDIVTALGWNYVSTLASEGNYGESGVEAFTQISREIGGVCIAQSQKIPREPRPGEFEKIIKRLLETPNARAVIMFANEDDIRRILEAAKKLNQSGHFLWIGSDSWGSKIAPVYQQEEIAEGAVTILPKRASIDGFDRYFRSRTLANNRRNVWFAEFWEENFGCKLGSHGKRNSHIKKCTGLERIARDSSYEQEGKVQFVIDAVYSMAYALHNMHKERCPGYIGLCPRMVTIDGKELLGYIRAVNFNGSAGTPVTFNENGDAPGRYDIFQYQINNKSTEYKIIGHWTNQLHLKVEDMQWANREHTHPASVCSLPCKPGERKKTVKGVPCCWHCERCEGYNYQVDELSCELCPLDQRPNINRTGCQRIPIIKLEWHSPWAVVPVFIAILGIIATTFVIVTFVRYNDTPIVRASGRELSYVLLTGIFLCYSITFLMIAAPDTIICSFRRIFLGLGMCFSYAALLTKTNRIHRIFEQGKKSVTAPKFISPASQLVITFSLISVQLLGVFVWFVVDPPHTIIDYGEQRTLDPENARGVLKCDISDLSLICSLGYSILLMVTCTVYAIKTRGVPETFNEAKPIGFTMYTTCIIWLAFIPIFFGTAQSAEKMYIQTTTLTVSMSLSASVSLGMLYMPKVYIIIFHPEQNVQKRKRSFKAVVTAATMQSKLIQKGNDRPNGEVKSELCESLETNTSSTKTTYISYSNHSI

| Structure (SMILES) | z-score |
| --- | --- |
| Cc1cc(C(=O)CN2C(=O)NC(Cc3c[nH]c4ccccc34)C2=O)c(C)n1C (stereo not given) | 0.108 |
| COc1ccc(C(=O)c2no[n+]([O-])c2C(=O)c2ccc(OC)cc2)cc1 | -0.148 |
| COCCn1c(SCC#N)nnc1-c1ccc(OC)cc1 | -0.0813 |
| O=C(CCNc1cc(Cl)cc(Cl)c1)c1ccco1 | 0.00404 |
| CCOC(=O)C1=C(O)/C(=C\c2ccc(CNS(=O)(=O)c3ccc(Br)cc3)o2)N=C1C | -0.842 |
| CCC(=O)NC(NC(=S)Nc1ccc(S(N)(=O)=O)cc1)C(Cl)(Cl)Cl (stereo not given) | -0.242 |
| c1ccn(-c2ccc(N3CCOCC3)cc2)c1 | 0.346 |
| Cc1ccc(N(CC(=O)Nc2ccccc2C(=O)NCc2ccco2)S(=O)(=O)c2ccccc2)cc1C | -0.0946 |
| CCOC(=O)c1c(C)[nH]c(C(=O)OCC(=O)NC(C)C)c1C | 0.214 |
| CC(NC(=O)CSc1nc2c(cc1C#N)CN(C)CC2)c1ccccc1 (stereo not given) | 0.37 |
| Cc1ccc(C(=O)N/C(=C\c2ccco2)C(=O)NCCc2c[nH]c3ccccc23)cc1 | -0.0416 |
| CSc1nc(NCc2ccco2)c2ccccc2n1 | -0.745 |
| CCCCC(=O)Nc1ccc2c(c1)nc1n2CCOC1 | 0.395 |
| Cc1ccc2cc(C#N)c(SCC(=O)NNC(=O)Cc3ccccc3)nc2c1 | 0.29 |
| O=S(=O)(NCc1ccccc1)c1cccc(S(=O)(=O)N2CCOCC2)c1 | -0.0157 |
| COc1ccccc1C/C(N)=N/OC(=O)c1ccc(C)c([N+](=O)[O-])c1 | -0.108 |
| Cc1ccc(C(=O)CSc2nnc(-c3ccco3)n2CC2CCCO2)cc1 (stereo not given) | 0.021 |
| COc1ccccc1CNC(=O)CCC(=O)Nc1nnc(C(C)C)s1 | 0.215 |
| C=CCn1c(N)cc(=O)nc1SC(C)C(=O)Nc1cccc2ccccc12 (stereo not given) | 0.871 |
| COc1ccc(C2CC(=O)C=C(NCCC(C)C)C2)cc1 (stereo not given) | 0.226 |
| O=C(CCc1nc(-c2ccccc2F)no1)NCCN1CCN(Cc2ccccc2)CC1 | active: -3.33 |
| COc1ccc(Cn2nnc(C(=O)Nc3ccc(F)cc3)c2N)cc1 | -0.321 |
| COc1ccc(C2(CNC(=O)c3ccc(OC)c([N+](=O)[O-])c3)CCOCC2)cc1OC | -0.13 |
| O=C(c1ccc(Br)s1)N1CCN(Cc2ccc3c(c2)OCO3)CC1 | 0.000905 |
| Cc1ccc(S(=O)(=O)N(C)c2ccccc2)cc1 | -0.466 |
| COc1ccc(N2CCN(c3nc(NCCO)nc(N4CCOCC4)n3)CC2)cc1 | 0.894 |
| COc1cccc(-n2nc3c(=O)n(Cc4ccccc4Cl)nc(C)c3c2C)c1 | -0.182 |
| O=C(Nc1ccc2c(c1)OCO2)C1CCN(S(=O)(=O)Cc2ccccc2)CC1 | -0.672 |

| Structure (SMILES) | z-score |
| --- | --- |
| O=C(COc1ccc(/C=N/NS(=O)(=O)c2ccccc2)cc1)Nc1cccc(Cl)c1 | -0.227 |
| COc1cccc(C(C(=O)NCc2ccco2)N(Cc2ccco2)C(=O)Cn2nnc3ccccc32)c1 (stereo not given) | -0.372 |
| CCCOc1ccc(Cn2ccnc2)cc1[N+](=O)[O-] | -0.086 |
| CC1CCCN(C(=O)CNC(=O)Cn2ccc3ccccc3c2=O)C1 (stereo not given) | 0.466 |
| COC(=O)CSc1nc2cc(C)cc(C)c2cc1C#N | -0.146 |
| OCC1(c2cc(C(F)(F)F)n[nH]2)CCCCC1 | -0.213 |
| CCOC(=O)c1c(C)[nH]c(C(=O)OCc2c(C)noc2C)c1C | -0.251 |
| CCCCC(=O)Nc1nnc(-c2ccc(OC)cc2)s1 | 0.207 |
| COc1ccc(C(=O)N=c2c(C#N)cc3c(=O)n4cccc(C)c4nc3n2Cc2ccco2)cc1 | -0.152 |
| Cc1scc(C(=O)N/N=C/c2ccc(OC(C)C)cc2)c1C | 0.164 |
| O=C(C1CC1)N1CCN=C1SCc1ccccc1Cl | -0.159 |
| COc1ccc(N(C(=O)c2ccco2)C(C(=O)NC2CCCCC2)c2ccccc2)cc1 (stereo not given) | -0.263 |
| COC(=O)c1cc2n(n1)CCN(Cc1ccc(C)cc1)C2=O | -0.151 |
| CCCn1nnnc1NC(=O)c1ccc2ccccc2c1 | active: 8.08 |
| CCOC(=O)C1CN(S(=O)(=O)c2ccc(OC)cc2)c2cc(S(=O)(=O)CC)ccc2O1 (stereo not given) | -1.32 |
| COc1cc(NS(=O)(=O)c2ccc(Nc3nc(-c4ccccc4)cs3)cc2)nc(OC)n1 | -0.636 |
| COc1ccc(C(C)=O)c(OC(=O)c2ccc(OC)c(OC)c2)c1 | 0.166 |
| Clc1ccc(CNCc2cccs2)c(Cl)c1 | -0.654 |
| Cc1noc(C)c1C(c1ccccc1)S(=O)(=O)c1ccccc1 (stereo not given) | 0.53 |
| CN(C)/C=N/C(=S)Nc1ccc(F)cc1 | -0.239 |
| CCOc1cc(C)c(Cl)cc1S(=O)(=O)n1nnc2ccccc21 | -1.3 |
| CC1CC(=O)c2cnc(Nc3cccc(C(F)(F)F)c3)nc2C1 (stereo not given) | -0.109 |
| CCCN1CCN(C(=S)Nc2ccccc2C(F)(F)F)CC1 | 2.17 |
| COc1cc(/C=N/NC(=O)C(=O)NCc2ccco2)ccc1O | -0.547 |
| O=S1(=O)CCN(Cc2ccc(Cl)cc2)CC1 | 0.976 |
| COC(=O)COc1ccc(S(=O)(=O)Nc2ccc3c(c2)OCO3)cc1Cl | -0.362 |
| S=C(Nc1ccccc1Cl)Nc1ccc(Cl)cc1Cl | active: 5.05 |
